# Reference: PubChem BioAssay AID504339 (National Center for Advancing Translational Sciences (NCATS), 2011)
# Hit rate of the full screen: of about 390,000 compounds, about 17,000 (4.4%) were called active. This list was built around the results that the source calls inconclusive (neither active nor inactive); the mix of calls is not that of the screen. The call rests on the fitted dose curve; in most records, active means well fitted inhibition curve with a large enough effect; inconclusive means small, poorly fitted or top-dose-only effect; inactive means no such curve, though single readings can be large or run the other way. Potencies beside an inconclusive call are fits to weak or partial responses and may not hold up.
# Target: Lysine-specific demethylase 4A (Homo sapiens) (UniProt O75164)
# Assay: qHTS Assay for Inhibitors of JMJD2A-Tudor Domain; further: nearly all actives have a fitted effect of over 50% in size
# Settings: AlphaScreen JMJD2A-Tudor / H3K4me3 peptide binding; activity change, negative = inhibition: at 114 µM (top of the series)
# On the % scale 0 is the no-effect control and ±100 the full control effect; potency means the concentration at half of the fitted maximal effect; tags describe the fitted curve by direction and shape.
# Sequence of UniProt O75164 (O75164 whole entry, looked up, the tested form may be a part): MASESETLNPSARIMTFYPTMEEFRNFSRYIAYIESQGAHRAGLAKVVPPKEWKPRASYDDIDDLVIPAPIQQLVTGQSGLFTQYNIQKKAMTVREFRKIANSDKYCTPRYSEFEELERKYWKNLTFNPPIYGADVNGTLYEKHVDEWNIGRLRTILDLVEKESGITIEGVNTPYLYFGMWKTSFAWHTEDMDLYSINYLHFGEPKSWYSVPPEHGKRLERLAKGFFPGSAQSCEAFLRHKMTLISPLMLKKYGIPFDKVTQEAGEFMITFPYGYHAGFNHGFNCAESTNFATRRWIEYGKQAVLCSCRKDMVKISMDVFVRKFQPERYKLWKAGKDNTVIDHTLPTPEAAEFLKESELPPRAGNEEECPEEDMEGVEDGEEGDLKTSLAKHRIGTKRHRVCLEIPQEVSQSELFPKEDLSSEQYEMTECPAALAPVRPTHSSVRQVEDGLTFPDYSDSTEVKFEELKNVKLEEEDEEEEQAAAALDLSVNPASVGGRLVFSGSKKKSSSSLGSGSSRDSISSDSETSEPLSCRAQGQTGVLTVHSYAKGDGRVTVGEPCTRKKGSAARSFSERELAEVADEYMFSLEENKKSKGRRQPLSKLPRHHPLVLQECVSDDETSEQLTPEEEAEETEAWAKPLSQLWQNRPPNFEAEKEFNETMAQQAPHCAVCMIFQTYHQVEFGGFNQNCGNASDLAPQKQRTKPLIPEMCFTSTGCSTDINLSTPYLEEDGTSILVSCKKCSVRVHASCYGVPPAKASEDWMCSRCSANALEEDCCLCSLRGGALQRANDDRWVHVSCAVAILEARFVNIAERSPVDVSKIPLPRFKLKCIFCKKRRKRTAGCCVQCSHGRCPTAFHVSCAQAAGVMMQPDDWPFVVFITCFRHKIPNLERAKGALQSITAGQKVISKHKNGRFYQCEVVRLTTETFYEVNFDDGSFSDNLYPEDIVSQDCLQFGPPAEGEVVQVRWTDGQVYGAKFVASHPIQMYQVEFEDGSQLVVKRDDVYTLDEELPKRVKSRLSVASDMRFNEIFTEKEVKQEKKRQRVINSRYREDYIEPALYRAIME
SMILES,Potency,"activity change, negative = inhibition"
Oc1ccccc1C1NCc2ccccc2-n2cccc21 (stereo not given),"inconclusive: 63.1 µM [inhibitor, single point]",
Cc1cccc(NC(=O)CSc2nnc([C@@H](N)Cc3c[nH]c4ccccc34)o2)c1C,"inconclusive: 56.2 µM [inhibitor, partial curve]",
COc1cccc(OC)c1C(=O)NC(=S)N1C[C@H]2C[C@H](C1)c1cccc(=O)n1C2,,inactive: -17.7%
CCOC(=O)c1sc(=NC(=O)c2ccc(C)c(C)c2)n(C)c1C,active: 20 µM,
Oc1c(Br)c(Br)c(Br)c(Br)c1Br,"inconclusive: 79.4 µM [inhibitor, partial curve]",
O=C(COC(=O)Cc1ccccc1)NC(=O)NC1CCCCC1,,inactive: -13.8%
CCC(C)N1CCN(C(=O)COc2ccc3ccccc3c2)CC1 (stereo not given),active: 2.82 µM,
COc1ccc(S(=O)(=O)N2CCOCC2)cc1NC(=O)COC(=O)Cc1ccccc1,,inactive: -4.58%
CCOP(=O)(Cc1cc(C#N)oc1C)OCC,,inactive: -0.346%
C[C@]12CCC3C(CC[C@H]4C[C@H](OC(=O)c5cccnc5)CC[C@]34C)C1CCC2=O (stereo not given in full),,inactive: -21.4%
O=C(N/N=C/c1c(O)n(CCc2ccc(F)cc2)c(=O)[nH]c1=O)c1ccncc1,"inconclusive: 89.1 µM [inhibitor, partial curve]",
O=C(O)c1ccccc1NC(=O)N1C[C@H]2C[C@@H](C1)c1cccc(=O)n1C2,"inconclusive: 100 µM [inhibitor, single point]",
CCCC[N+]12CCC(CC1)C(C(=O)c1cccs1)C2 (stereo not given),"inconclusive: 28.2 µM [inhibitor, single point]",
CN1CCN(c2ccccc2NC(=O)c2ccc(-c3ccc(Cl)c(Cl)c3)o2)CC1,active: 50.1 µM,
CCOP(=O)(Nc1ccc2c(c1)C(=NNC(N)=S)c1ccccc1-2)OCC,"inconclusive: 5.62 µM [inhibitor, full curve]",
CCCc1[nH][nH]c(=O)c1C(c1ccc(Cl)cc1)C(C#N)C#N (stereo not given),"inconclusive: 79.4 µM [inhibitor, partial curve]",
COc1ccc(NC(c2ccccc2F)P(=O)(Oc2ccccc2)Oc2ccccc2)cc1 (stereo not given),"inconclusive: 14.1 µM [inhibitor, partial curve]",
O=C1NC(=O)N(c2ccccc2)C(=O)/C1=C/c1coc2ccc(O)cc2c1=O,"inconclusive: 79.4 µM [inhibitor, single point]",
NC(=Nc1ccccc1)NN=Cc1c[nH]c2ccccc12,"inconclusive: 35.5 µM [inhibitor, full curve, poor fit]",
COc1ccc(-c2n(-c3ccccn3)c3ccccc3[n+]2-c2ccccn2)cc1,,inactive: 2.72%
